Assay results from PubChem BioAssay AID624418 (National Center for Advancing Translational Sciences (NCATS), 2012).
Among all 410,000 compounds or so, about 530 (0.13%) were called active. The inconclusive results got no clear call from the source; some entries with a clear call stand among them for comparison. Calls come from the whole dose curve; as a rule, active = well fitted inhibition curve with a large enough effect; inconclusive = small, poorly fitted or top-dose-only effect, or another doubt; inactive = no such curve, though single readings can be large or run the other way. Potencies of inconclusive entries are doubtful fits and often do not repeat.

assay: qHTS of GLP-1 Receptor Inverse Agonists: Cytotox Screen; conditions: HEK293 cAMP-luciferase reporter cells, luminescence, 24 h; series mostly up to 38.3 µM
Method in brief: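 Here, cytotoxicity is scored as loss of luminescence. The MLSMR collection was tested on cells seeded in medium containing 10% Nu serum, with a 24 hr compound exposure preceded by 12 hours of culture.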
Potency is the fitted concentration of half-maximal effect.

Question: For `CC(C)Oc1ccc(-c2nc(NCC3CCCO3)c3ccccc3n2)cc1` (stereo unspecified), which Potency is on record?
Answer: inconclusive: 28.2 µM [inhibitor, single point]

Question: With `C/C(=N\NC(=O)c1ccc(Cn2cc(Br)cn2)o1)c1ccc(NC(=O)c2ccoc2C)cc1` as the compound, how does the Potency read?
Answer: inconclusive: 11.2 µM [inhibitor, single point]

Question: For `CC(C)=CCCC1(C)C=Cc2c(c(C)cc3c2[nH]c2cc(O)ccc23)O1` (stereo unspecified), which Potency is on record?
Answer: inconclusive: 10 µM [inhibitor, partial curve, poor fit]

Question: Which Potency does the source give for `Cc1ccccc1C(=O)N1CCC(C(=O)Nc2nc3ccc(F)cc3s2)CC1` here?
Answer: inactive

Question: With `O=C(COc1ccc(S(=O)(=O)NC2CCCCC2)cc1)NC1CCCCC1` as the compound, how does the Potency read?
Answer: inactive

Question: For `Cc1cc(O)c(C(C)C)cc1N=Nc1ccccc1C(=O)O`, which Potency is on record?
Answer: inconclusive: 10 µM [inhibitor, partial curve]

Question: With `Cc1ccc(C(=O)c2cc([N+](=O)[O-])ccc2N2CCN(C)CC2)cc1` as the compound, how does the Potency read?
Answer: inconclusive: 7.94 µM [inhibitor, partial curve, poor fit]

Question: Which Potency does the source give for `CCN1CCN(Cc2coc3ccc(C)cc3c2=O)CC1` here?
Answer: inconclusive: 20 µM [inhibitor, single point]

Question: With `C/C(CC(=O)NCc1ccc(F)cc1)=N\NC(N)=S` as the compound, how does the Potency read?
Answer: inconclusive: 28.2 µM [inhibitor, single point]

Question: With `Cc1ccc(-c2[nH]ncc2/C=C(\C#N)C(=O)NC2CCCCC2)cc1` as the compound, how does the Potency read?
Answer: inactive

Question: For `COc1ccc(CNc2nc3ccccc3n2Cc2ccc(Cl)cc2)cc1OC`, which Potency is on record?
Answer: inconclusive: 28.2 µM [inhibitor, single point]

Question: For `CCC(Sc1nc2cc3c(cc2c(=O)n1CCCC(=O)NCc1ccc2c(c1)OCO2)OCO3)C(=O)NCCCOC` (stereo unspecified), which Potency is on record?
Answer: inactive

Question: With `CCOc1ccccc1NC(=O)c1ccc(OCC)c([N+](=O)[O-])c1` as the compound, how does the Potency read?
Answer: inactive

Question: With `Cc1ccc(O)c([C@H](CCN(C(C)C)C(C)C)c2ccccc2)c1` as the compound, how does the Potency read?
Answer: inconclusive: 28.2 µM [inhibitor, single point]

Question: Which Potency does the source give for `Nc1c(-c2nc(-c3ccccc3Cl)no2)nnn1-c1ccccc1F` here?
Answer: inactive

Question: With `CCCCOc1cccc(C(=O)Nc2ccc(NC(=O)c3cccs3)cc2)c1` as the compound, how does the Potency read?
Answer: inconclusive: 7.94 µM [inhibitor, partial curve, poor fit]

Question: Which Potency does the source give for `Fc1ccc(NC(=S)Nc2ccc(F)c(Cl)c2)cc1Cl` here?
Answer: inconclusive: 28.2 µM [inhibitor, single point]

Question: With `CC(C)(C)OC(=O)N[C@@H](COCc1ccccc1)C(=O)N[C@@H](CO)[C@H](O)[C@@H]1C[C@@H]1C(=O)N1CCCC1` as the compound, how does the Potency read?
Answer: inconclusive: 28.2 µM [inhibitor, single point]

Question: For `Cn1cc(S(=O)(=O)N2CCCCC2)cc1C(=O)NCc1ccc(Cl)cc1`, which Potency is on record?
Answer: inactive

Question: With `COC(CNC(=O)[C@H](CSCc1ccccc1)N1Cc2ccccc2C1=O)OC` as the compound, how does the Potency read?
Answer: inconclusive: 28.2 µM [inhibitor, single point]

Question: For `O=C(NC(=S)Nc1cccnc1Cl)c1ccc(F)cc1`, which Potency is on record?
Answer: inconclusive: 28.2 µM [inhibitor, single point]

Question: Which Potency does the source give for `COc1cnc(-c2ccccn2)nc1Sc1ccccc1` here?
Answer: inconclusive: 5.01 µM [inhibitor, partial curve]

Question: For `CCS(=O)(=O)N1CC(=O)N(c2ccc(C)c(C)c2)C(C)(C(=O)NC2CCCCCC2)C1` (stereo unspecified), which Potency is on record?
Answer: inactive

Question: Which Potency does the source give for `COc1cc(/C=C2\N=C3CCCCCN3C2=O)ccc1O` here?
Answer: inconclusive: 31.6 µM [inhibitor, single point]

Question: Which Potency does the source give for `CCCNS(=O)(=O)c1cccc(C(=O)OCc2cc(=O)oc3cc(OC)ccc23)c1` here?
Answer: inconclusive: 1.58 µM [inhibitor, full curve, poor fit]

Question: With `CCOC(=O)c1c(NC(=O)CSc2nnc3c(n2)[nH]c2ccccc23)sc2c1CCN(C)C2` as the compound, how does the Potency read?
Answer: inconclusive: 11.2 µM [inhibitor, single point]

Question: For `Cc1noc(C)c1NC(=O)Nc1cccc2c1O[C@H](CN(C)S(C)(=O)=O)[C@@H](C)CN([C@H](C)CO)C2=O`, which Potency is on record?
Answer: inactive

Question: Which Potency does the source give for `Cn1c(CCN2CCCCCC2)nc2cc(NC(=O)Nc3ccccc3)ccc21` here?
Answer: inconclusive: 10 µM [inhibitor, single point]

Question: For `c1ccc(-n2cccc2CNC2CCCCC2)cc1`, which Potency is on record?
Answer: inconclusive: 28.2 µM [inhibitor, single point]

Question: With `COC(=O)c1ccc2nc(-c3ccc(Cl)cc3)c(Cc3cccc(Cl)c3)n2c1` as the compound, how does the Potency read?
Answer: inactive

Question: With `COc1ccc(-c2sc3ccc(N4CCOCC4)cc3c2C#CCCO)cc1` as the compound, how does the Potency read?
Answer: inconclusive: 11.2 µM [inhibitor, single point]

Question: With `CCOc1ccc(CCNC(=O)c2cc3c(-c4ccccc4F)nn(C)c3s2)cc1OCC` as the compound, how does the Potency read?
Answer: inactive

Question: With `O=C(NN1C(=O)/C(=C/c2ccc(O)c([N+](=O)[O-])c2)SC1=S)c1ccccc1Cl` as the compound, how does the Potency read?
Answer: inconclusive: 25.1 µM [inhibitor, single point]

Question: With `CN=c1scc(-c2cccs2)n1/N=C/c1ccc(O)c(O)c1O` as the compound, how does the Potency read?
Answer: inconclusive: 31.6 µM [inhibitor, single point]

Question: Which Potency does the source give for `Cc1cccc(C)c1OCC(O)CN1CCc2ccccc2C1` (stereo unspecified) here?
Answer: inactive

Question: For `O=c1c(C=NCC2CCCO2)c(-c2ccccc2)[nH]n1-c1ccc([N+](=O)[O-])cc1` (stereo unspecified), which Potency is on record?
Answer: inconclusive: 2.51 µM [inhibitor, partial curve, poor fit]

Question: For `Cc1ccc(Cc2c(-c3ccc(C)cc3)nc3cc(C)ccn23)cc1`, which Potency is on record?
Answer: inconclusive: 12.6 µM [inhibitor, single point]

Question: With `Cc1nc(-c2cccc(NC(=O)c3ccc(-n4nccc4C)cc3)c2)cs1` as the compound, how does the Potency read?
Answer: inconclusive: 11.2 µM [inhibitor, partial curve, poor fit]

Question: Which Potency does the source give for `Cc1cccc(NC(=O)NC(=S)NC(=O)c2ccccc2)c1` here?
Answer: inconclusive: 28.2 µM [inhibitor, single point]

Question: Which Potency does the source give for `O=c1c(O)c(-c2ccccc2)oc2cc(O)cc(O)c12` here?
Answer: inactive

Question: For `CCCCCCN(C(=O)CCCN1C(=O)NC(c2ccc(-c3ccccc3)cc2)C(C(=O)OCc2ccccc2)=C1C)C(C)C(=O)NCCCC` (stereo unspecified), which Potency is on record?
Answer: inactive

Question: With `Cc1cc(N2CCOCC2)nc2ccc(NC(=S)NCCC(C)C)cc12` as the compound, how does the Potency read?
Answer: inconclusive: 28.2 µM [inhibitor, single point]

Question: With `COc1cc2cc(CN(CCc3ccccc3C)C(=S)NCCCN(C)C)c(=O)[nH]c2cc1OC` as the compound, how does the Potency read?
Answer: inactive

Question: With `N#C/C(=C/c1ccc(O)c([N+](=O)[O-])c1)C(=O)Nc1ccccc1` as the compound, how does the Potency read?
Answer: inconclusive: 8.91 µM [inhibitor, partial curve, poor fit]

Question: For `CCN(CC)c1ccc(C2C(C(=O)OC(C)C)C(=O)CC(C)(O)C2C(=O)OC(C)C)cc1` (stereo unspecified), which Potency is on record?
Answer: inconclusive: 3.98 µM [inhibitor, single point]

Question: For `COc1cccc(-c2nnc3sc(CN4CCCCC4)cn23)c1`, which Potency is on record?
Answer: inconclusive: 5.62 µM [inhibitor, full curve, poor fit]

Question: Which Potency does the source give for `Cc1nnc(Sc2cc(NCCCO)c([N+](=O)[O-])c3nonc23)s1` here?
Answer: inconclusive: 12.6 µM [inhibitor, single point]

Question: With `Cc1cnc2c(c1SCC(=O)NCc1ccccc1Cl)c(=O)n(C)c(=O)n2C` as the compound, how does the Potency read?
Answer: inactive

Question: For `COc1cc(Nc2nc3ccccc3nc2NS(=O)(=O)c2ccc([N+](=O)[O-])cc2)cc(OC)c1OC`, which Potency is on record?
Answer: inconclusive: 3.55 µM [inhibitor, full curve]

Question: With `Cn1c(SCC(=O)NC2CCCC2)nnc1-c1ccc(S(=O)(=O)N2CCOCC2)cc1` as the compound, how does the Potency read?
Answer: inconclusive: 0.447 µM [inhibitor, full curve, poor fit]

Question: Which Potency does the source give for `COC(=O)c1ccc(NC(=O)CC2C(=O)N(c3ccc(C)cc3)C(=O)N2Cc2ccc(OC)cc2)cc1` (stereo unspecified) here?
Answer: inactive

Question: For `O=C(c1cccc2ccccc12)N1CCN(c2ccc([N+](=O)[O-])c(N3CCOCC3)c2)CC1`, which Potency is on record?
Answer: inconclusive: 12.6 µM [inhibitor, single point]

Question: Which Potency does the source give for `COc1ccc(OC)c(CN2C(=O)c3ccccc3C2c2nnnn2-c2ccc3c(c2)OCCO3)c1` (stereo unspecified) here?
Answer: inconclusive: 2.82 µM [inhibitor, full curve]

Question: Which Potency does the source give for `COc1cc(OC)cc(C(=O)NNC(=O)c2ccc3c(c2)OCCO3)c1` here?
Answer: inconclusive: 28.2 µM [inhibitor, single point]

Question: Which Potency does the source give for `CCC(C)c1ccc(NC(=S)NCc2ccccn2)cc1` (stereo unspecified) here?
Answer: inconclusive: 28.2 µM [inhibitor, single point]

Question: Which Potency does the source give for `O=C(NCc1ccccc1)C1(C(F)(F)F)C/C(=C/CCO)CCCO1` (stereo unspecified) here?
Answer: inactive

Question: For `O=C(NC1CCCCC1)c1ccc2c(c1)OCO2`, which Potency is on record?
Answer: inactive

Question: For `Cc1nnc(NCc2ccc(F)cc2)c2c1nnn2Cc1ccccc1Cl`, which Potency is on record?
Answer: inactive

Question: With `CCOc1ccc2[nH]c3c(N4CCC5(CC4)OCCO5)ncnc3c2c1` as the compound, how does the Potency read?
Answer: inconclusive: 25.1 µM [inhibitor, single point]

Question: Which Potency does the source give for `CN1C/C(=C/c2ccccc2[N+](=O)[O-])C(=O)/C(=C\c2ccccc2[N+](=O)[O-])C1` here?
Answer: inconclusive: 1.58 µM [inhibitor, full curve, poor fit]

Question: With `COc1ccc(C(=O)COC(=O)CCC(=O)c2cccs2)cc1` as the compound, how does the Potency read?
Answer: inconclusive: 28.2 µM [inhibitor, single point]

Question: For `CCOc1ccc(CNC(=S)NCc2ccc(OCC)cc2)cc1`, which Potency is on record?
Answer: inconclusive: 5.01 µM [inhibitor, full curve]

Question: Which Potency does the source give for `CCC(C(=O)N1CCN(c2ccc(OC)cc2)CC1)n1nc(C)n2c(cc3occc32)c1=O` (stereo unspecified) here?
Answer: inconclusive: 2 µM [inhibitor, partial curve, poor fit]

Question: Which Potency does the source give for `COc1ccc(Nc2c3c(nc4nncn24)CCC3)cc1Cl` here?
Answer: inactive

Question: Which Potency does the source give for `c1csc(COc2ccccc2CNC2CCCCC2)c1` here?
Answer: inconclusive: 11.2 µM [inhibitor, partial curve, poor fit]

Question: Which Potency does the source give for `Cc1ccc(-c2nnn(CC(=O)N(c3ccccc3F)C(C(=O)NC3CCCC3)c3ccco3)n2)o1` (stereo unspecified) here?
Answer: inconclusive: 2.24 µM [inhibitor, full curve, poor fit]
